# Test results reported in PubChem BioAssay AID624296 (National Center for Advancing Translational Sciences (NCATS), 2012).
# The campaign covered roughly 350,000 compounds. About 9,900 (2.8%) were called active. The shares of active, inactive and inconclusive entries below differ from those in the screen. Calls follow the shape of the dose curve; as a rule, active = well fitted activation curve with a large enough effect; inconclusive = small, poorly fitted or top-dose-only effect; inactive = no such curve, though single readings can be large or run the other way. No potency is given beside an inconclusive call; the fits are too rough.
# Test: A quantitative high throughput screen for small molecules that induce DNA re-replication in MCF 10a normal breast cells. Also: nearly all actives have a fitted effect of over 50% in size.
# Details: MCF 10A DNA re-replication, Hoechst nuclear intensity, 48 h; series mostly up to 46.1 µM
# Potency is read from the fitted curve at half-maximal effect; tags tell the direction and shape of the fitted curve.
row,SMILES,Potency
1,CCN1CCCc2cc(CN(CCN3CCOCC3)C(=S)Nc3ccccc3OC)ccc21,"inconclusive [activator, partial curve, poor fit]"
2,CC(C)(C)S(=O)(=O)N1Cc2ccc(CO)cc2[C@@H]1CCO,inactive
3,Cc1cc(C)n(NC(=S)NC2CCCC2)c(=O)c1C#N,active: 23.1 µM
4,S=C(NC1CCCCC1)NN1CCCCCC1,inactive
5,COc1cccc(OCc2cc(/C=N/n3cncn3)ccc2OC)c1,"inconclusive [activator, partial curve, poor fit]"
6,C=CCn1c(=O)/c(=C/c2cc(OC)c(OC)c(OC)c2)s/c1=C(/C#N)c1nc2ccccc2n1C,"inconclusive [activator, full curve, poor fit]"
7,Cc1ccc(/C=C2\CCOC2=O)cc1,inactive
8,c1ccc2c(c1)nc(N1CCOCC1)c1c3ccccc3[nH]c21,active: 3.66 µM
9,C=CCN1C(c2ccccc2)=CS/C1=C(\C#N)c1nnc2n1CCCCC2,inactive
10,CC[C@H](C)[C@H](NC(N)=O)C(=O)Nc1ccccc1F,inactive
11,Cc1cc2cc3c(=O)[nH]c(=O)nc-3n(CC(O)C(O)C(O)CO)c2cc1C (configuration not stated),"inconclusive [activator, single point]"
12,CC(NCC(O)COC1CCC(C(C)(C)C)CC1)c1ccccc1 (configuration not stated),"inconclusive [activator, partial curve]"
13,CCOc1ccc(CN(C)CC(=O)c2c(N)n(Cc3ccccc3)c(=O)n(CC)c2=O)cc1OC,"inconclusive [activator, single point]"
14,O=C(NCc1ccccc1Cl)c1ccc(CSc2nc3ccncc3[nH]2)cc1,inactive
15,N#CCSc1nccc(-c2cc(Cl)sc2Cl)n1,"inconclusive [activator, single point]"
16,COc1cc(NC(=O)COc2cccc(C)c2C)ccc1NC(=O)c1ccco1,"inconclusive [activator, single point]"
17,COCCn1c(SCC(=O)N2CCCCC2)nc2c([nH]c3ccccc32)c1=O,inactive
18,CCOC(=O)c1sc(=S)n(C)c1C,inactive
19,O=C(CN(Cc1ccc(Cl)cc1)S(=O)(=O)c1ccccc1)NCC1CCCO1 (configuration not stated),inactive
20,CC(C)(C)S(=O)(=O)c1cnc(-c2ccccn2)nc1N,"inconclusive [activator, single point]"
21,O=C(NCCN1C(=O)S/C(=C\c2ccccc2)C1=O)c1cc(S(=O)(=O)N2CCOCC2)c(Cl)cc1Cl,"inconclusive [activator, single point]"
22,C/C(=N\NC(N)=S)c1ccc(Cl)s1,"inconclusive [activator, partial curve, poor fit]"
23,O=c1[nH]c2ccc(S(=O)(=O)N3CCN(c4ccc(F)cc4)CC3)cc2o1,inactive
24,CC1(c2nnc(-c3cccc(Cl)c3)o2)CC(c2ccc(F)cc2)=NO1 (configuration not stated),"inconclusive [activator, full curve, poor fit]"

row,SMILES,Potency
1,O=C1C=C(Nc2ccc(O)cc2)CC(c2ccco2)C1 (configuration not stated),"inconclusive [activator, single point]"
2,Cn1cc(Cl)c(C(=O)Nc2nc3ccccc3s2)n1,inactive
3,COc1cnn(-c2cccc(C)c2)c(=O)c1Cl,"inconclusive [activator, single point]"
4,COc1cccc(-n2c(SCC(N)=O)nnc2-c2ccncc2)c1,"inconclusive [activator, single point]"
5,CN(C)C(=O)c1ccc(-n2cccn2)nc1,"inconclusive [activator, single point]"
6,COC(=O)c1c(-c2ccc(OC)cc2)sc2cc(OC)c(OC)cc12,"inconclusive [activator, single point]"
7,O=C1CC(=O)N(CCc2ccccc2)C(=O)N1CCc1ccccc1,"inconclusive [activator, single point]"
8,C[C@@H](NCCCn1cnc2c(OCc3ccccc3)ncnc21)c1cccc2ccccc12,"inconclusive [activator, single point]"
9,Cc1cc(N2CCN(C)CC2)nc2ccc(NC(=S)NC3CC3)cc12,"inconclusive [activator, partial curve, poor fit]"
10,CC1CC(C)CN(C(=O)C2CCCN(c3ncnc4c3nc3n4CCCCC3)C2)C1 (configuration not stated),"inconclusive [activator, single point]"
11,CCN(CC)c1ccc(C(=O)N/N=C(\C)c2ccc(O)cc2)cc1,active: 8.2 µM
12,COc1ccc(C(=O)Nc2cc(OC)c(NC(=O)c3ccco3)cc2OC)cc1,inactive
13,COc1ccc(/C=N/NC(=O)c2ccn[nH]2)cc1COc1ccc(Cl)cc1Cl,active: 11.6 µM
14,CCc1cccc(NC(=O)C2CCN(S(=O)(=O)c3cccs3)CC2)c1,inactive
15,O=C(CSc1nnc(-c2ccco2)o1)NC1CC2CCC1C2 (configuration not stated),"inconclusive [activator, partial curve, poor fit]"
16,CCN1CCN(c2ccc(S(=O)(=O)N3CCCCC3)cc2NC(=O)c2ccc(OC(F)F)cc2)CC1,inactive
17,CCc1ccc(NC(=O)CN2CCN(c3ccc(OC)cc3)CC2)cc1,"inconclusive [activator, partial curve, poor fit]"
18,CCCSc1nc(NCc2ccco2)c2c3c(sc2n1)COC(C)(C)C3,"inconclusive [activator, partial curve]"
19,Cc1c(C)n(CCCN(C)C)c2ncnc(Nc3ccc(F)cc3)c12,"inconclusive [activator, full curve, poor fit]"
20,CC12CCC3c4ccc(O)cc4CCC3C1CC(O)C2O (configuration not stated),inactive
21,O=C(CCN1C(=O)/C(=C/c2ccccc2Cl)SC1=S)NC1C=CS(=O)(=O)C1 (configuration not stated),active: 14.6 µM
22,Cc1cc(C)c2nc(N(CCCN(C)C)C(=O)c3ccc4c(c3)OCCO4)sc2c1,active: 18.4 µM
23,Cc1cc(C)n2nc(SCC(=O)N/N=C/c3ccccn3)nc2n1,"inconclusive [activator, partial curve, poor fit]"
